We go through 84 variants from a collection of fitness landscapes (doi:10.1126/science.1257360).

Some of the results follow. Where only a bound is given, the exact number is not on record here.

The chains are these.
B1: PhoQ; a variant is named by its letters at X, in order, P23837 (parent)
chain: MKKLLRLFFPLSLRVRFLLATAAVVLVLSLAYGMVALIGYSVSFDKTTFRLLRGESNLFYTLAKWENNKLHVELPENIDKQSPTMTLIYDENGQLLWAQRDVPWLMKMIQPDWLKSNGFHEIEADVNDTSLLLSGDHSIQQQLQEVREDDDDAEMTHSVAVNVYPATSRMPKLTIVVVDTIPVELKSSYMVWSWFIYVLSANLLLVIPLLWVAAWWSLRPIEALAKEVRELEEHNRELLNPATTRELTSLVRNLNRLLKSERERYDKYRTTLTDLTHSLKTPLXXLQXXLRSLRSEKMSVSDAEPVMLEQISRISQQIGYYLHRASMRGGTLLSRELHPVAPLLDNLTSALNKVYQRKGVNISLDISPEISFVGEQNDFVEVMGNVLDNACKYCLEFVEISARQTDEHLYIVVEDDGPGIPLSKREVIFDRGQRVDTLRPGQGVGLAVAREITEQYEGKIVAGESMLGGARMEVIFGRQHSAPKDE

In this test the parent is B1. The test can be described thus: enrichment ratio after two sorts for PhoP signalling (ratio (wild type AVST 3.29)); higher = more functional. Conditions: with PhoP (E. coli).
As for DYFK, the enrichment ratio was ≤ 0.25.

Consider PNPN, for which the enrichment ratio was ≤ 0.25.

AYQF: the enrichment ratio is ≤ 0.25.

With GSSA, the enrichment ratio is 3.54.

Take VFEP: the enrichment ratio is ≤ 0.25.

In the case of PWYK, the enrichment ratio was ≤ 0.25.

As to DIYQ, the enrichment ratio was ≤ 0.25.

As for YPHG, the enrichment ratio was ≤ 0.25.

Regarding HPYI, the enrichment ratio is ≤ 0.25.

For the variant TTAG, the enrichment ratio was determined as 6.99.

Regarding WSQE, the enrichment ratio was ≤ 0.25.

Consider WHYD, for which the enrichment ratio is ≤ 0.25.

On to VYTG, for which the enrichment ratio is ≤ 0.25.

Regarding KCGG, the enrichment ratio is ≤ 0.25.

Consider ADQF, for which the enrichment ratio is ≤ 0.25.

Take IYMG: the enrichment ratio was ≤ 0.25.

Take WKGS: the enrichment ratio is ≤ 0.25.

For the variant QATC, the enrichment ratio was ≤ 0.25.

Turning to WAMP, the enrichment ratio was ≤ 0.25.

As to FSYN, the enrichment ratio is ≤ 0.25.

As for KISM, the enrichment ratio is ≤ 0.25.

As for PDRQ, the enrichment ratio was ≤ 0.25.

As for FRNK, the enrichment ratio was ≤ 0.25.

Consider TMIK, for which the enrichment ratio is ≤ 0.25.

For the variant INFD, the enrichment ratio is ≤ 0.25.

Take PKYC: the enrichment ratio is ≤ 0.25.

On to LRAN, for which the enrichment ratio is ≤ 0.25.

With NVGG, the enrichment ratio is ≤ 0.25.

For the variant TQDF, the enrichment ratio turned out to be 2.27.

Turning to YWNI, the enrichment ratio was ≤ 0.25.

For RTNF, the enrichment ratio is ≤ 0.25.

For QYLV, the enrichment ratio was ≤ 0.25.

As for LDCN, the enrichment ratio is ≤ 0.25.

On to ADVK, for which the enrichment ratio was ≤ 0.25.

For LDYY, the enrichment ratio is ≤ 0.25.

Regarding ASGP, the enrichment ratio is ≤ 0.25.

As for VHIQ, the enrichment ratio was ≤ 0.25.

With DQRG, the enrichment ratio is ≤ 0.25.

Consider TTCE, for which the enrichment ratio was found to be 8.85.

Consider NKCG, for which the enrichment ratio is ≤ 0.25.

LEEH: the enrichment ratio was ≤ 0.25.

As to ANES, the enrichment ratio was ≤ 0.25.

As to FCGY, the enrichment ratio was ≤ 0.25.

YQVI: the enrichment ratio is ≤ 0.25.

For LKYF, the enrichment ratio was ≤ 0.25.

Regarding ECNC, the enrichment ratio was ≤ 0.25.

Turning to LPGT, the enrichment ratio was ≤ 0.25.

For the variant LSFA, the enrichment ratio was ≤ 0.25.

For PVIC, the enrichment ratio is ≤ 0.25.

For ICLV, the enrichment ratio stood at 18.8.

For IYEC, the enrichment ratio is ≤ 0.25.

QEPG: the enrichment ratio is ≤ 0.25.

In the case of IAVR, the enrichment ratio is ≤ 0.25.

As for QKCC, the enrichment ratio was ≤ 0.25.

Consider TTRM, for which the enrichment ratio is 1.07.

Regarding VGSE, the enrichment ratio was ≤ 0.25.

As to LPGA, the enrichment ratio is ≤ 0.25.

Turning to FYVR, the enrichment ratio was ≤ 0.25.

Regarding GMKV, the enrichment ratio was ≤ 0.25.

For the variant HWDW, the enrichment ratio was ≤ 0.25.

With LHYD, the enrichment ratio is ≤ 0.25.

For the variant GNVN, the enrichment ratio was ≤ 0.25.

Consider DGHF, for which the enrichment ratio is ≤ 0.25.

Consider GYRT, for which the enrichment ratio was ≤ 0.25.

Take PAYY: the enrichment ratio was ≤ 0.25.

As for VMMG, the enrichment ratio is ≤ 0.25.

As to GFYR, the enrichment ratio was found to be 0.293.

PMPS: the enrichment ratio was ≤ 0.25.

As for TSTM, the enrichment ratio was determined as 25.6.

For FSHT, the enrichment ratio is ≤ 0.25.

Turning to DNIA, the enrichment ratio was ≤ 0.25.

On to PRSF, for which the enrichment ratio was ≤ 0.25.

As for GHVM, the enrichment ratio was ≤ 0.25.

Regarding LFPQ, the enrichment ratio was ≤ 0.25.

As to MDEI, the enrichment ratio is ≤ 0.25.

KCIQ: the enrichment ratio was ≤ 0.25.

Regarding HWLI, the enrichment ratio was ≤ 0.25.

As for WEPS, the enrichment ratio is ≤ 0.25.

In the case of MGCW, the enrichment ratio was ≤ 0.25.

In the case of KIWK, the enrichment ratio is ≤ 0.25.

As for QHFT, the enrichment ratio was ≤ 0.25.

Take YMYR: the enrichment ratio is ≤ 0.25.

For GLRL, the enrichment ratio was ≤ 0.25.

VCSV: the enrichment ratio is 0.913.
